Changes are numbered by the printed parent chain. Numbers in names are those of the source.
Legend:
[1] = target: T1, FAN1 R507H, full-length (human, UniProt Q9Y2M0 1-1017, R507H); assay: cell-based or functional assay
T1 sequence (looked up): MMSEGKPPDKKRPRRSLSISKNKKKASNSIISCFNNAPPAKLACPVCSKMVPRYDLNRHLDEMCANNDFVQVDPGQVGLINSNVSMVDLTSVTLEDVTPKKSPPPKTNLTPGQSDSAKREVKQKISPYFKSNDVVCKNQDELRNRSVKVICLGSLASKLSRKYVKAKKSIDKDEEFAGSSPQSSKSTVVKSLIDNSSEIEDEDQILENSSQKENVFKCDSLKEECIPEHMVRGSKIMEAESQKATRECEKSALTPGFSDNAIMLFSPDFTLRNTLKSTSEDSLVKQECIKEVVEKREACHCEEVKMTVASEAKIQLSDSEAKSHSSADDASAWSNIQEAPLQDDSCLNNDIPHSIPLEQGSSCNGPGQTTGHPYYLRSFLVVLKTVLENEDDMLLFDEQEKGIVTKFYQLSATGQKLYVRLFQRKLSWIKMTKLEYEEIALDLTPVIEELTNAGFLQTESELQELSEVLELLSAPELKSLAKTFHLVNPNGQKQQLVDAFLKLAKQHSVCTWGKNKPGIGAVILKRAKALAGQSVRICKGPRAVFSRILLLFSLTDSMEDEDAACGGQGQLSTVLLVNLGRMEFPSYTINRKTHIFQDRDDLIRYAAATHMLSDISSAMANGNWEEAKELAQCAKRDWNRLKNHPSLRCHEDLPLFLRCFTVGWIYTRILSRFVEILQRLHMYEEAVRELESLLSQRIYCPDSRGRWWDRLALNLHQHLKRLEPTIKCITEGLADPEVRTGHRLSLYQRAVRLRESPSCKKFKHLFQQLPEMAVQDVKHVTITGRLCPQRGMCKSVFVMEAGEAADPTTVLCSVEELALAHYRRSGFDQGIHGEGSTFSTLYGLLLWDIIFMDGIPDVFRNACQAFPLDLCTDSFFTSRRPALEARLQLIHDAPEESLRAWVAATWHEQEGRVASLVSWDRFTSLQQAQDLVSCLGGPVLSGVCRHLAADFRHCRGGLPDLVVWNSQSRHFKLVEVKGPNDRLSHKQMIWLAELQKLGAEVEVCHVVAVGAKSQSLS

[2] = target: T2, N-terminally truncated FAN1 (trFAN1), wild type, residues 364-1017 (human, UniProt Q9Y2M0 364-1017); assay: cell-based or functional assay
T2 sequence (looked up): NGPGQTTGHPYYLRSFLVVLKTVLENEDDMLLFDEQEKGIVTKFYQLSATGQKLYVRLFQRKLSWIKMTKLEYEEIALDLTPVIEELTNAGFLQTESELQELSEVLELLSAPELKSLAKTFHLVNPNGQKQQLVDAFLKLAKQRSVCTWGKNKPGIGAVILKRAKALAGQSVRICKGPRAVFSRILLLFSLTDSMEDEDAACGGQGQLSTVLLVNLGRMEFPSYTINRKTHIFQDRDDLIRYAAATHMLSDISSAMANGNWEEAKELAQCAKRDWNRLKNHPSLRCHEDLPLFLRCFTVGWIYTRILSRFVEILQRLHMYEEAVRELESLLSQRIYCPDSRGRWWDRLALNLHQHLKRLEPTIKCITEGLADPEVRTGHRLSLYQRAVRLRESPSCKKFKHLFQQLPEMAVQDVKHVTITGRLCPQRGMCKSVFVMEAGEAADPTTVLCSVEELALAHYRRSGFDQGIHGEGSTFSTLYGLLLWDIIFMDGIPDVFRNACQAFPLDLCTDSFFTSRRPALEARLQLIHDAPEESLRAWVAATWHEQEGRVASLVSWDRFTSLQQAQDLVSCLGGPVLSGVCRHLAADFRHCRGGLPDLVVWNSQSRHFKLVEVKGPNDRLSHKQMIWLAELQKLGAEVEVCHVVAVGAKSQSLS

[3] = target: T3, N-terminally truncated FAN1 R507H (trFAN1 R507H), residues 364-1017 (human, UniProt Q9Y2M0 364-1017, R507H); assay: cell-based or functional assay
T3 sequence (looked up): T2 sequence (looked up) with R144H

[4] = target: T4, FAN1 (FANCD2-FANCI-associated nuclease 1), full-length, wild type (human, UniProt Q9Y2M0 1-1017); assay: MST; 10 nM Cy5-labeled 61 bp homoduplex DNA, PCNA titrated in the presence of 100 nM FAN1, in solution; 25 °C; 25 mM HEPES pH 7.5, 125 mM KCl, 10 mM CaCl2; conditions: both partners purified
T4 construct: human FAN1, full length, wild type; codon-optimised synthetic gene; Tag removed with PreScission protease; also called FAN1 WT; full-length FAN1; source: Sf21 insect cells, baculovirus (purification text says Sf9), purified (HisTrap, Heparin Sepharose, S200 SEC); not shown: His, N-terminal, cleaved; FLAG, N-terminal, cleaved; MBP, N-terminal, cleaved
T4 sequence (looked up): T1 sequence (looked up) with H507R

[5] = target: T1, FAN1 R507H, full-length; assay: as above; conditions: both partners purified
[6] = target: T3, N-terminally truncated FAN1 R507H …; assay: as above; conditions: both partners purified
[7] = target: T4, FAN1 (FANCD2-FANCI-associated nuclease …); assay: SPR; biotinylated 113 bp homoduplex DNA on neutravidin; PCNA titrated 10 µM to 156 nM in the presence of 100 nM FAN1 (A-B-A mode); steady-state affinity and 1:1 kinetic fit; 25 °C; 25 mM HEPES pH 7.5, 125 mM KCl, 10 mM CaCl2; conditions: both partners purified
[8] = target: T3, N-terminally truncated FAN1 R507H …; assay: as above; conditions: both partners purified

B1: PCNA D232A, full-length (natural protein)
chain: not shown
notes: human PCNA, full length, with D232A; Trimer as said of PCNA in general; not measured for the mutant; source: E. coli BL21(DE3), purified (HisTrap, reverse HisTrap, S200 SEC); not shown: His (or His-AVI), N-terminal, cleaved
kcat of FAN1 R507H on 5′pG1/3′T1 dsDNA in presence of PCNA D232A (only partially restored) [1]: 2 s⁻¹
kcat of trFAN1 WT on 5′pG1/3′T1 dsDNA in presence of PCNA D232A (activity remains unchanged) [2]: 5.5 s⁻¹
kcat of trFAN1 R507H on 5′pG1/3′T1 dsDNA in presence of PCNA D232A (activity remains unchanged) [3]: 9.5 s⁻¹
KD with DNA (PCNA for DNA in the presence of FAN1) [4]: 1.3 µM
KD with DNA (PCNA for DNA in the presence of FAN1) [5]: 5.1 µM
KD with DNA (PCNA for DNA in the presence of FAN1) [6]: 15.8 µM
KD with DNA (PCNA for FAN1-bound DNA) [7]: 3.7 µM
KD with DNA (PCNA for FAN1-bound DNA) [8]: 14 µM
